Laboratory results reported in PubChem BioAssay AID504832 (National Center for Advancing Translational Sciences (NCATS), 2011).
Screen size: about 310,000 compounds; about 18,000 (5.8%) were called active. The shares of active, inactive and inconclusive entries below differ from those in the screen. The call rests on the fitted dose curve; in most records, active means well fitted inhibition curve with a large enough effect; inconclusive means small, poorly fitted or top-dose-only effect, or another doubt; inactive means no such curve, though single readings can be large or run the other way. Potencies of inconclusive entries are left out as doubtful fits.

Assay: Primary qHTS for delayed death inhibitors of the malarial parasite plastid, 48 hour incubation
Settings: P. falciparum luciferase growth in erythrocytes; series mostly up to 28.7 µM
How it was run: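 Erythrocytes infected with P. falciparum carrying an integrated firefly luciferase reporter (2% hematocrit, 0.1% parasitemia final) were exposed to compounds in RPMI 1640 with 0.5% Albumax at 37 C, 5% CO2. Growth inhibition was scored as reduced luminescence.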
Potency means the concentration at half of the fitted maximal effect; tags describe the fitted curve by direction and shape.

Row | Compound | Potency
1 | Cc1ccc(S(=O)(=O)NN=C2C3CC4CC(C3)CC2C4)cc1[N+](=O)[O-] | inactive
2 | Cc1ccc(NC(=O)C(NC2CCCc3ccccc32)c2ccccc2)cc1Cl (stereo not drawn) | inconclusive [inhibitor, partial curve, poor fit]
3 | CN(c1cccc(Cl)c1)S(=O)(=O)c1cccc(C(=O)NN2CCOCC2)c1 | inactive
4 | COc1ccccc1NC(=O)C(C)N1C(=O)C2CCCCC2C1=O (stereo not drawn) | inactive
5 | c1nnc(NC2=NCCCCC2)s1 | inactive
6 | O=C(NCc1ccc(Cl)cc1)c1ccc(S(=O)(=O)N2CCCCC2)cc1 | inconclusive [inhibitor, single point]
7 | O=C1C(=O)N(CCO)C(c2ccc(Br)cc2)/C1=C(\O)c1ccccc1 (stereo not drawn) | inactive
8 | O=C(CN1CCN(CC(=O)c2ccc(F)cc2)CC1)Nc1ccccc1Cl | inconclusive [inhibitor, partial curve, poor fit]
9 | CC(=O)Nc1ccc(-c2cc(-c3ccc(NC(C)=O)cc3)nc(-c3ccc(NC(C)=O)cc3)n2)cc1 | inactive
10 | CCCCc1nc(N2CCOCC2)c(C#N)c2c1COC(C)(C)C2 | active: 6.57 µM
11 | C=CCn1c(SCc2nc3ccccc3[nH]2)nnc1-c1cccc(OC)c1 | inconclusive [inhibitor, single point]
12 | CCN(CC)c1ccc(/C=C2\C(=O)NC(=S)N(C)C2=O)o1 | inactive
13 | O=C(CN1CCN(Cc2ccc3c(c2)OCO3)CC1)N1c2ccccc2Sc2ccccc21 | inconclusive [inhibitor, single point]
14 | COc1ccc(C(=O)Cn2c(C(=O)/C=C/c3ccccc3)nc3ccccc32)cc1 | active: 10.4 µM
15 | COc1cccc(C(=O)NCC(=O)N2CCC3(CC2)NCCc2[nH]cnc23)c1OC | inactive
16 | COc1ccc(CNC(=O)c2ccc(Cn3nc(C)c([N+](=O)[O-])c3C)o2)cc1 | inconclusive [inhibitor, full curve, poor fit]
17 | O=C(COc1ccc(S(=O)(=O)N2CCOCC2)cc1)Nc1ccccc1F | inconclusive [inhibitor, partial curve]
18 | COc1ccc(C(=O)/C=C/Nc2ccccn2)c(OC)c1 | inactive
19 | C=CCN1C(=O)C(CC(=O)Nc2ccc(OCCC)cc2)N(CCCN2CCN(Cc3ccccc3)CC2)C1=S (stereo not drawn) | inconclusive [inhibitor, partial curve]
20 | CC(OC(=O)c1ccc(NC(=O)CC#N)cc1)C(=O)Nc1ccc(Oc2ccccc2)cc1 (stereo not drawn) | inconclusive [inhibitor, single point]
21 | CCOC(=O)c1sc(NC(=O)C(C)C)c(C#N)c1C | inactive
22 | O=C(CN1CCN(C(=O)c2ccco2)CC1)Nc1cccc(S(=O)(=O)N2CCCC2)c1 | inconclusive [inhibitor, partial curve, poor fit]
23 | CCN(CC)CCN(C(=O)c1ccc2ncsc2c1)c1nc2cc3c(cc2s1)OCO3 | inactive

Row | Compound | Potency
24 | COc1cc(C2c3[nH]c4ccccc4c3C[C@H]3C(=O)N(CCO)CC(=O)N23)cc(OC)c1OC (stereo partly drawn) | inconclusive [inhibitor, partial curve, poor fit]
25 | COc1ccc(CN2CCC(c3nc4ccc(Cl)cc4[nH]3)CC2)cc1 | inconclusive [inhibitor, single point]
26 | O=c1[nH]c(NCc2ccccc2)nc2c1CCCC2 | active: 13.1 µM
27 | O=S(=O)(c1ccc2c(c1)nc(COc1ccc(Cl)cc1)n2CC1CCCO1)N1CCOCC1 (stereo not drawn) | inconclusive [inhibitor, partial curve]
28 | CCOC(=O)c1c(C)n(CCN2CCN(C)CC2)c2ccc(OC)cc12 | inconclusive [inhibitor, single point]
29 | CCn1c(CNC(=O)COc2c(C)cccc2C)nnc1SCC(=O)Nc1nccs1 | inconclusive [inhibitor, single point]
30 | NC(=O)c1ccc(-n2nnnc2SCc2ccc(F)cc2)cc1 | inconclusive [inhibitor, single point]
31 | CCOC(=O)C1=C(C)NC(C)=C(C(=O)OCC)C1c1ccc([N+](=O)[O-])s1 | inconclusive [inhibitor, partial curve, poor fit]
32 | CCc1ccccc1N(CC)C(=O)C1CCN(c2ncnc3c2nc2n3CCCCC2)CC1 | inconclusive [inhibitor, partial curve]
33 | CCOc1cc(C(c2c(C)[nH][nH]c2=O)c2c(C)[nH][nH]c2=O)ccc1OS(=O)(=O)c1ccc(C)cc1 | active: 14.7 µM
34 | Nc1ccc2nc(Cc3ccccc3)[nH]c2c1 | active: 9.28 µM
35 | CCC(=O)N1CCc2cc(S(=O)(=O)CCC(=O)NCc3ccc(OC)cc3)ccc21 | inactive
36 | COc1ccc(OCc2cc(C(=O)N(C)Cc3cc(C4CC4)n[nH]3)no2)c(Cl)c1 | active: 9.28 µM
37 | CCOC(=O)C1CCN(C/C=C/c2ccccc2[N+](=O)[O-])CC1 | inactive
38 | O=C(NCCNC1CCC(c2ccccc2)CC1)c1ccc(F)cc1 (stereo not drawn) | inconclusive [inhibitor, single point]
39 | Cc1c(CN2CCC(CO)(Cc3ccccc3)CC2)c2ccccc2n1C | inconclusive [inhibitor, single point]
40 | O=C(NC1CC(=O)N(c2ccc3c(c2)OCCO3)C1)N1CCC(O)CC1 (stereo not drawn) | inconclusive [inhibitor, partial curve, poor fit]
41 | Cc1ccc(CCCNC(=O)C2CCC(=O)N(Cc3cccc(F)c3)C2)cc1 (stereo not drawn) | inconclusive [inhibitor, single point]
42 | CCN(CC)S(=O)(=O)c1ccc(Cl)c(C(=O)OCC(=O)c2c(N)n(C)c(=O)n(C)c2=O)c1 | inconclusive [inhibitor, single point]
43 | O=C(c1ccco1)N1CCCC(c2nc(-c3ccc(S(=O)(=O)NCc4ccccc4)cc3)no2)C1 (stereo not drawn) | inconclusive [inhibitor, single point]
44 | CC(C)(C)NC(=O)C(c1ccncc1)N(C(=O)Cn1nnc(-c2ccc(F)cc2)n1)c1ccc(F)cc1 (stereo not drawn) | active: 2.62 µM
45 | COc1ccc(OCC(=O)NNC(=O)C(=O)N2CCCC2)cc1 | inactive
46 | CCCOc1ccc(CCc2n[nH]c(=S)n2Cc2ccccc2)cc1 | active: 5.86 µM

Row | Compound | Potency
47 | Cc1occc1-c1nnc(SCC(N)=O)o1 | inactive
48 | CCCNC(=O)OC[C@H]1O[C@H](CCO/N=C/[C@@H](NS(=O)(=O)c2ccc(C)cc2)[C@H](C)/C=C/CC(=O)OC)C=C[C@@H]1Oc1ccc(OC)cc1 | inconclusive [inhibitor, partial curve]
49 | COc1ccc(N2C(=O)CC(N(CCc3ccc(OC)c(OC)c3)C(=S)Nc3ccccc3)C2=O)cc1 (stereo not drawn) | active: 4.65 µM
50 | Cc1cccc(S(=O)(=O)N2CN(CC3CCCO3)c3nc4ccccc4nc32)c1 (stereo not drawn) | inconclusive [inhibitor, partial curve]
51 | CC(C)C[C@@H](CN=[N+]=[N-])N1CCN(C)CCC1=O | inactive
52 | Cc1ccc(C(=O)Nc2cccc(NC(=O)c3ccc(C)c([N+](=O)[O-])c3)n2)cc1[N+](=O)[O-] | active: 1.65 µM
53 | Nc1ccc2nc(-c3ccccn3)[nH]c2c1 | inconclusive [inhibitor, single point]
54 | Cc1[nH]c2ccc(OC(F)(F)F)cc2c1CCNCc1cccc([N+](=O)[O-])c1 | active: 1.47 µM
55 | Cc1ccc2cc(/C=N/NC(=O)[C@H]3C[C@@H]3c3ccccc3)c(Cl)nc2c1 | active: 2.94 µM
56 | CC1CCN(CCOCCOc2ccc(Cl)cc2Br)CC1 | inconclusive [inhibitor, single point]
57 | COc1ccc(N/C=C(\C#N)c2nc3ccccc3n2C)c(OC)c1 | inconclusive [inhibitor, single point]
58 | CCC(C)NCC(=O)Nc1ccc(-c2nc3cc(NC(=O)CNC(C)CC)ccc3o2)cc1 (stereo not drawn) | inconclusive [inhibitor, single point]
59 | CCc1ccc(NC(=O)CS(=O)CC(=O)Nc2ccc(N3CCOCC3)cc2)cc1 (stereo not drawn) | inactive
60 | N/C(=N\OC(=O)CCCc1ccccc1)c1ccc([N+](=O)[O-])cc1 | inactive
61 | COc1ccc(Cl)cc1NC(=O)c1ccc2c(SCC(=O)O)c3c(nc2c1)CCCC3 | inconclusive [inhibitor, single point]
62 | COc1ccc(CCNC(=O)c2ccc3nc4cc(Cl)ccc4c(=O)n3c2)cc1OC | inconclusive [inhibitor, partial curve]
63 | CCOC(=O)C1(CCOc2ccccc2)CCN(Cc2ccc(NC(C)=O)cc2)CC1 | active: 13.1 µM
64 | COc1ccc(NC2CCCN(C(=O)CSc3ccncc3)C2)cc1 (stereo not drawn) | inactive
65 | COc1ccc(C)cc1Nc1n[n+](-c2ccccc2)c(-c2ccc(OC)c(OC)c2OC)s1 | inconclusive [inhibitor, full curve, poor fit]
66 | Cc1ccc(C)c(NC(=O)CN(C)C(=O)c2cc(S(=O)(=O)N3CCOCC3)ccc2N2CCCC2)c1 | inconclusive [inhibitor, partial curve, poor fit]
67 | CCC1Oc2ccc(C)cc2N(CC(=O)N(Cc2ccc(C)o2)C2CCCC2)C1=O (stereo not drawn) | inconclusive [inhibitor, single point]
68 | COc1ccc(/C=C2/SC(=O)N(CCCCCC(=O)Nc3ccccc3C(=O)O)C2=S)cc1 | inconclusive [inhibitor, single point]
